Data from PubChem BioAssay AID1508623 (National Center for Advancing Translational Sciences (NCATS), 2021).
Screen size: about 48,000 compounds; about 450 (0.94%) were called active. About 19% were inconclusive and are not listed. Calls follow the shape of the dose curve; as a rule, active = well fitted inhibition curve with a large enough effect; inconclusive = small, poorly fitted or top-dose-only effect; inactive = no such curve, though single readings can be large or run the other way. The list shows a part of the results.

assay: Primary qHTS for Identification of Small Molecule Inhibitors of Huntingtin Promoter Activity; details: HEK293 HTT promoter firefly luciferase reporter (activity 0% = vehicle and -100% = no light), 24 h; series mostly up to 57.5 µM; activity change, negative = inhibition: at the top concentration; also: nearly all actives have a fitted effect of over 50% in size
How it was run: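 HEK293 luciferase promoter-reporter cells (2,500/well) plated 24 h, then compounds added at up to 57.5 uM final for 24 h at 37 °C. Firefly luminescence by Dual-Glo, normalized to vehicle (0%) and zero RLU (-100%).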

Activity change, negative = inhibition, inactive:
COC(=O)c1ccc(NC(=O)C(C)N2Cc3ccccc3C2=O)cc1 (stereo unspecified) -20.3%, COc1ccc(N2CCN(C(=O)c3c(C)oc4ncn(CC(C)C)c(=O)c34)CC2)cc1 -0.644%, N[C@H]1C(O)O[C@H](CO)[C@@H](O)[C@@H]1O (stereo partly specified) 9.16%, CCn1cc(C(=O)N2CCN(c3ccccc3OC)CC2)c2cc(OC)c(OC)cc2c1=O -4.23%, CCC(Oc1ccccc1)C(=O)Nc1nnc(S(=O)(=O)N2CCCC2)s1 (stereo unspecified) -14.9%, CCc1ccc(OCC(=O)Nc2c(C(=O)c3ccc(Br)cc3)oc3ccccc23)cc1 -5.04%, OC[C@H]1O[C@@H](n2cnc3c2NC=NC[C@@H]3O)C[C@H]1O -8.53%, CCOc1cccc2sc(=NC(=O)c3ccc(S(=O)(=O)N4CCOCC4)cc3)n(C)c12 -18.5%, CCCCN(CCCC)CCn1cnc2c([nH]c3ccc(OC)cc32)c1=O -18.6%, COc1ccc(NC(=O)c2oc3ccccc3c2NC(=O)c2cc(=O)c3ccccc3o2)cc1 1.3%, COc1ccc(CNC(=O)c2ccc(-c3nc(CSc4ccccc4)c(C)o3)cc2)cc1 -20.2%, Cc1ccc2c(c1)-c1nc(-c3ccccc3)cc(-c3ccccc3)c1CO2 -7.04%, C=C1C[C@H]2[C@@H]3C=C(C)C4=CC(=O)CC[C@]4(C)[C@H]3CC[C@]2(C)[C@@]1(OC(C)=O)C(C)=O -18.6%, Cc1nn2c(=O)cc(COC(=O)c3ccccc3NC(=O)C3CCCCC3)nc2s1 -11.2%, O=C(NCCc1csc(-c2cccc(F)c2)n1)c1ccco1 -13%, COc1cc(-c2cc3n(C)c(C)c(CCC(=O)NC4CCC(C)CC4)c(=O)n3n2)cc(OC)c1OC (stereo unspecified) 20.8%, O=C(NC1CCCC1)c1ccc2c(c1)N(Cc1c(F)cccc1Cl)C(=O)c1ccccc1S2 -24.6%, COc1cccc2c1Oc1ncccc1N(C(=O)CCC(=O)NCc1ccc(OC(C)C)cc1)C2 1.46%, Cc1nn(CC(=O)NC(C)c2ccccc2)c(=O)c2cc3occc3n12 (stereo unspecified) -10.3%, O=C(CSc1nc2c([nH]c3ccccc32)c(=O)n1-c1ccccc1)Nc1ccccc1C(F)(F)F -12.9%, NC(=O)COc1ccc(-c2noc(COc3ccc(Cl)cc3)n2)cc1 -9.76%, NS(=O)(=O)c1ccc(CCNC(=O)Cn2c(=O)c3cccn3c3ccc(F)cc32)cc1 -0.806%, COc1ccc2c(c1)CC(C(=O)Nc1c(C)cc(C)cc1C)CO2 (stereo unspecified) -13.6%, COc1cccc(C(=O)NCC(c2ccc3c(c2)OCO3)N2CCN(C)CC2)c1 (stereo unspecified) -9.12%, Cc1[nH]c2ccccc2c1C1(O)C(=O)Nc2ccc(Cl)cc21 (stereo unspecified) 1.06%, COc1cc(CNCCCSc2nnnn2C)cc(Br)c1OC 1.07%, Cc1ccc(-n2c3c(c(=O)[nH]c2=O)C(NC(=O)C(C)(C)C)(C(F)(F)F)C(=O)N3)cc1 (stereo unspecified) -7.34%, COc1ccc(OC)c(NC(=O)CCCOc2cc(=O)n(C)c3ccccc23)c1 -18.8% [at 11.5 µM], COc1cccc(NC(=O)CSC2=Nc3ccccc3C3=NC(CCC(=O)NC4CCCCC4)C(=O)N23)c1 (stereo unspecified) -9.43%, COc1ccc2c(c1)c(CC(=O)OC/C=C(\C)CC/C=C(\C)CCC=C(C)C)c(C)n2C(=O)c1ccc(Cl)cc1 5.95%, CNC(=O)C1CCC(Cn2c(=O)c3sccc3n(CC(=O)Nc3ccc(C)cc3C)c2=O)CC1 (stereo unspecified) -11.1%, Cc1cccc(NC(=O)CSc2nc(=O)n(CCN3CCOCC3)c3c2CCC3)c1 -12.5%, COc1cccc(NC(=O)CN2C(=O)COc3ccc(S(=O)(=O)N4CCOCC4)cc32)c1 -6.94%, CN(c1nnc(NC(=O)Nc2ccc(Br)cc2)s1)C1CCCCC1 28.2%, Cc1ccc(NC(=O)Nc2csc3c2CCCC3)c(C)c1 -7.37%, NC(=O)C1CCN(C(=O)c2ccccc2NC(=O)c2nsc3ccccc23)CC1 37.5%, CCOC(=O)c1c(NC(=O)c2cc(=O)c3c(C)cc(C)cc3o2)sc(C)c1C 14.2%, COc1ccccc1Nc1nn2c(=O)c3ccc(C(=O)NC4CCCCC4)cc3nc2s1 -11.7%, CCOc1ccc(N(CC(=O)NCc2ccc(C)cc2)S(=O)(=O)c2c(C)[nH]c(=O)[nH]c2=O)cc1 -6.31%, Brc1ccc(-c2csc(-c3nc(-c4ccc(Br)s4)cs3)n2)cc1 1.1%, CCN1CCN(C(c2cccc(OC)c2)c2c(O)cc(C)n(Cc3ccco3)c2=O)CC1 (stereo unspecified) -5.74%, CCc1ccc(NC(=O)c2sc3nc(-c4ccccc4)cn3c2C)cc1 -23.4%, COc1cccc(C2C=C(c3ccc(C)cc3)Nc3c(C(=O)Nc4ccc(F)cc4)cnn32)c1OC (stereo unspecified) -21.4%, O=C(Nc1ccccc1C(F)(F)F)N1Cc2ccccc2Oc2ncccc21 18.7%, CC(NC(=O)c1ccc(Cn2c(SCc3ccccc3)nc3cccnc32)cc1)c1ccccc1 (stereo unspecified) -3.65%, CC(CCc1ccccc1)NC(=O)Cn1ncc2c3ccccc3n(Cc3cccc(Cl)c3)c2c1=O (stereo unspecified) 6.69%, COc1ccc(CN(C(=O)c2ccc(OCC(C)C)cc2)C2CCS(=O)(=O)C2)cc1 (stereo unspecified) -5.13%, CCc1cccc(-n2nnc(-c3nc(-c4ccc5c(c4)OCO5)no3)c2C)c1 -2.95%, Cc1cccc(C(=O)NCc2nnc(SCC(=O)Nc3ccccc3F)n2-c2ccccc2)c1 -9.39%, COc1ccc(NC(=O)CSc2nc(-c3ccccc3)c3ccccc3n2)cc1 -2.42%, CCN(CC)Cc1ccc2cc(COC(=O)Nc3ccc(C(=O)NO)cc3)ccc2c1 161%, CC1CN(C(=O)Nc2ccc(C(=O)NCCc3ccc(Cl)cc3)cc2)c2ccccc2S1 (stereo unspecified) 8.56%, COCCn1c(C)cc(O)c(C(c2ccc(OC)cc2)N2CCCCC2)c1=O (stereo unspecified) -17%, CC(=O)Oc1cccc2c1C(=O)c1c(OC(C)=O)cc(C(=O)O)cc1C2=O -1.96%, Cc1ccccc1NC(=O)CSCn1nnc2c(=O)[nH]c(Cc3ccc(F)cc3)nc21 -7.51%, CCCC(=O)Nc1ccc2nc(SCCOc3ccccc3)sc2c1 -6.28%, CCCN1Cc2cccc(C(=O)Nc3ccccc3F)c2C1=O -12.1%, COc1ccc(Cl)cc1NC(=O)c1c(NCc2cccnc2)sc2c1CCCC2 -27.4%, CC(C)(C)OC(=O)N1CCC(c2c(C(=O)NCCc3ccsc3)cnn2-c2ccc(F)cc2F)CC1 -13.3%, COc1ccccc1C(=O)Nc1nnc(S(=O)(=O)N2CCCCC2)s1 33%, COc1ccc2ncc3c(-c4ccccc4)nn(-c4ccc(C)c(C)c4)c3c2c1 -5.83%, Cc1ccccc1NC(=O)Cn1c(=O)n(Cc2ccco2)c(=O)c2ccc(C(=O)NC3CCCC3)cc21 -10.1%, Cc1cc(-c2ccccc2)nc2cc(C(=O)Nc3ccc(Cl)c(Cl)c3)nn12 -1.21%, COc1ccccc1C(=O)NC1(C(F)(F)F)C(=O)NC(C)=C1C#N (stereo unspecified) -11.8%, COc1ccccc1N1CCN(C(=O)C2CCN(S(=O)(=O)c3cccs3)CC2)CC1 -3.54%, Cc1ccccc1NC(=O)Cn1nnc(C(=O)NCc2ccco2)c1N -20.4%, COc1cc(OC)c(NC(=O)c2nn(C)c3c2COc2ccccc2-3)cc1Cl -9.18%, Cc1ccc(C)c(Cn2c(=O)n(CCc3ccccc3)c(=O)c3c(C)c(C)sc32)c1 10.4%, COc1ccc(Cn2nc3n(c2=O)-c2ccccc2OC3)cc1 10%, Cc1cccc(C(=O)Nc2nnc(S(=O)(=O)N3CCOCC3)s2)c1 13.5%, Cc1ccc(-c2nnc(Nc3cccc(Br)c3)c3ccccc23)cc1S(=O)(=O)N1CCN(C)CC1 -16.8%, O=C(Nc1ccccc1)c1cc2c(-c3ccccc3)nn(-c3ccccc3)c2s1 -8.79%, CCOc1ccc(OC(=O)c2sc3ncn(Cc4cccc(F)c4)c(=O)c3c2C)cc1 -21.1%, O=C(CSc1c2c(nc3ccc(Cl)cc13)CCCC2)N1CCN(c2ccc(Cl)cc2)CC1 2.12%, COc1ccc(OC)c(NC(=O)C(Cc2ccccc2)NS(=O)(=O)c2ccc3c(c2)CCC(=O)N3)c1 (stereo unspecified) -9.19%, CCN(CC)S(=O)(=O)c1ccc2c(c1)N(CC(=O)Nc1cccc(C(C)=O)c1)C(=O)CO2 -15.5%, O=C(Nc1ccc(Br)cc1)Nc1nc2c(s1)CCCCCC2 -10.4%, O=C(COCc1cc(-c2ccc3c(c2)OCO3)on1)Nc1cccc(O)c1 -3.6%, CCC(=O)N1c2ccccc2CC1C(=O)NCCCN1CCN(c2ccc(F)cc2)CC1 (stereo unspecified) -2.54%, Cc1ncc(CSSCc2cnc(C)c(O)c2CO)c(CO)c1O 5.54%, Cc1cccc(C(=O)n2nc(-c3ccco3)nc2NCc2ccccc2)c1 26.1%, COc1ccc(-c2cc(C(F)(F)F)nc(NCc3ccccc3)n2)cc1OC -26.9%, CC1CCc2c(sc3nnn(CC(=O)Nc4cccc(C(F)(F)F)c4)c(=O)c23)C1 (stereo unspecified) -24.9%, CCc1ccc2oc(-c3cccc(NC(=O)c4ccc(-c5cccc([N+](=O)[O-])c5)o4)c3)nc2c1 46.1%, CCOc1ccc(Br)cc1C1C(C(=O)Nc2ccccc2OC)=C(C)Nc2nnnn21 (stereo unspecified) -17.5%, Cc1cccc(OC(C)C(=O)N2CCC(c3nc4ccccc4o3)CC2)c1C (stereo unspecified) -21.2%, CCn1c(=O)c(=O)n(CC)c2cc(N3CCCCC3)c(NC(=O)c3cccc(OC)c3)cc21 -5.5%, CC(=O)N1c2ccc(S(=O)(=O)NCCc3cccc(C)c3)cc2CC1C (stereo unspecified) 0%, CCOc1cccc(NC(=O)CSc2ncc(-c3ccc(Cl)cc3)[nH]2)c1 -18.8%, COc1ccc(-n2c(=O)c3c4c(sc3n(Cc3ccccc3)c2=O)CCC4)c(OC)c1 -27.5%, CC1(C)OC(=O)NC1=O 2.02%, Cc1ccc(NC(=O)CC2Sc3ccccc3NC2=O)c(C)c1 (stereo unspecified) -26.2%, CCOC(=O)c1ccc(-c2ccc(/C=C(\C#N)C(=O)Nc3cccc(C)c3)o2)cc1 4.41%, CN(N=O)C(=O)N[C@H]1C(O)OC(CO)[C@@H](O)[C@H]1O (stereo partly specified) 2.82%, CCN(C(=O)c1cc(S(=O)(=O)N2CCCCC2)c[nH]1)c1ccc(OC)cc1 -18.9%, CCOc1ccc(-n2c(-c3ccc(OC)cc3)cc3c2CC(C)(C)CC3=O)cc1 -33.7%
